Test results from the supplement of paper PMC3334620.
In all, about 33,000 sequences were measured (“E-score (-0.5 to 0.5)”: median about -0.012, highest 2% from about 0.27 on). This is one part of the list.

target: T1, Vhr1 (UniProt P40522); assay: PBM E-score (8-mer binding enrichment) (E-score (-0.5 to 0.5)); higher = stronger / more preferred TF binding; most listed sequences are background and not binding sites; conditions: protein concentration: 200 nM; construct: GST-full length
T1 sequence: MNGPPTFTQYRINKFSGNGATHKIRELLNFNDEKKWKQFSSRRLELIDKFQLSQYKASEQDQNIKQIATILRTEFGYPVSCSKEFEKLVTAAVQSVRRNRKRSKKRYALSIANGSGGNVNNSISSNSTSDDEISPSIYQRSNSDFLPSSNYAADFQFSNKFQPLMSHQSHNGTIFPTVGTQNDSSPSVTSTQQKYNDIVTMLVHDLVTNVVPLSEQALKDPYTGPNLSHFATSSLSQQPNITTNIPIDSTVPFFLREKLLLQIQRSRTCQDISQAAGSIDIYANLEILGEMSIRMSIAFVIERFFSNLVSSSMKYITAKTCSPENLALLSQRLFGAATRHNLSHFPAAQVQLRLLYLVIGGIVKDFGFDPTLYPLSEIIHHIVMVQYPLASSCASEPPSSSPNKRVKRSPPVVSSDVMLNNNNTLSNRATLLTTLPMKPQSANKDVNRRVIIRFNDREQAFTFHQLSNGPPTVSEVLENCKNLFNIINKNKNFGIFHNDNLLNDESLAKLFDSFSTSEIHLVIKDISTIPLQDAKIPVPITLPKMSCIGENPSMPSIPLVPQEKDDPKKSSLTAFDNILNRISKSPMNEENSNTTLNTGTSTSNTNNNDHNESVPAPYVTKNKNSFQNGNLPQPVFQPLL
Method in brief: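 Using PURExpress in vitro transcription/translation, GST-tagged yeast transcription factors were made in full-length or DNA-binding-domain form. These were applied at about 100-200 nM to double-stranded universal all-10-mer Agilent arrays, and bound protein was detected with fluorescent anti-GST. Scans were normalised with masliner before the Universal PBM Analysis Suite assigned E-scores to ungapped eight-base words pooled with their reverse complements.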

Sequence | PBM E-score
CATTAGGC | -0.189
AGTTCAAC | 0.131
CATGCCGA | 0.214
AGTCTACA | -0.125
CAACTGTG | -0.151
AGGGGGCG | -0.0762
AGACCTAA | -0.0314
CAATCCCC | 0.0337
TCTAGAAA | -0.272
TAATACGA | -0.0262
CTCTATAC | -0.164
AGCGCTAA | -0.0398
AAGTTAAG | -0.373
ATTAGTGG | 0.141
ACCGTTTA | -0.0693
ACCTCAGT | 0.0616
AGTGAGTC | 0.466
AAGCGTTA | -0.16
ATTTAGAG | 0.0088
GCCCTTCC | -0.294
CAATTTGC | -0.192
GCTGGTCA | -0.107
ATATGCAG | -0.0948
CCTCAAAG | -0.165
AGCAGTGA | 0.167

Sequence | PBM E-score
AGGGTCGA | 0.158
AACTGTCT | 0.0639
CCGTTTAG | -0.0628
ATGGTGGA | -0.00384
GCAAGATA | 0.00244
CCTGTGGA | -0.166
GTGCTGGA | -0.102
CTAGATGA | -0.0565
CAGGCACA | -0.0257
AGAGGTGC | -0.158
GAGGTTTA | -0.0416
GTAATAAC | -0.0132
ACGCTAAC | -0.0278
GCGACCGC | 0.0978
ATGCCGGC | -0.153
GACGCCAC | -0.0198
ATCGGACC | 0.0111
GTAGCAGA | -0.131
CCCCCAAC | -0.181
ACCCCGCG | 0.0106
AAGGAAGC | -0.153
TAGAACCA | -0.0903
ACGTCGAT | -0.0387
ACTAACTC | 0.03
ACTTGTCT | -0.106

Sequence | PBM E-score
ATTCTCCA | -0.0263
AGACGGGA | 0.107
CCCCCACA | -0.28
CCACGCCC | -0.108
ACCAATCA | 0.147
GTCTTTCA | -0.0537
ACAGACAT | 0.168
ACGTTTGC | -0.0799
TACCATGA | 0.0938
AGGGCCCG | 0.0628
CTGATAAG | -0.0476
CAATTAGC | -0.00377
CCGTCATA | 0.139
ACACTTTA | -0.0402
ATCTTTCG | -0.0102
AACAGTGG | 0.104
CCTACCCC | -0.155
GATAGTAC | 0.199
CTGCCGAC | 0.209
ACATAAAA | -0.0866
AAATCAGA | 0.0175
CCCCGGAA | -0.271
CAACCTGG | 0.182
GCGAAGTA | -0.0716
ACCGGGGC | 0.117

Sequence | PBM E-score
CACGGTGG | 0.273
ACGGTGAC | 0.165
ATCGACAC | 0.138
CTTCACAA | -0.282
ACAATGAG | 0.122
CCACGCTC | -0.142
AAGCGGAC | -0.0493
ATTCGCTG | 0.154
AACCGCTT | -0.0717
ATCGGGAG | 0.0461
GACCGCGC | 0.0329
CGAGAAAC | -0.104
TCTCTCCA | -0.0643
TCCCAGAA | -0.214
CCTTACTA | -0.155
ACACTGTA | 0.19
ATTATTTA | 0.0549
ATATTCGA | -0.0743
ACGTGTAA | 0.145
AAGCGCAG | -0.0586
CAAGGACC | -0.0343
ATCCTCCC | -0.107
AGGCGGGG | 0.121
CATTACCA | 0.0557
AATCAATC | 0.186

Sequence | PBM E-score
CTCCGTTA | -0.0185
GATGTTAA | 0.0387
ACAGATAA | -0.07
AGCGTACC | -0.0102
CCCGAATC | 0.145
TCGCCTCA | -0.202
GTATGCGA | 0.117
CCTCCCCC | -0.19
CATCGAGG | -0.0476
AGTGCCCC | -0.109
GTGCTCAA | -0.0756
ACCCACTA | 0.133
TAGGGTAA | 0.0987
ACGTGAAA | -0.0882
CGCCATTC | 0.0956
ATCATGAT | 0.245
ACGTCAAG | -0.203
AAGGCACA | -0.0305
GGTCATAA | -0.0598
CCGTGCAC | -0.182
AAATGCCA | -0.305
GGCGCGAC | 0.275
AGAAAGTA | -0.025
CACTTCTA | -0.121
CTGATCAC | 0.0343

Sequence | PBM E-score
AAGAACGA | -0.165
CATCGGGG | -0.00022
AAAGGCTG | -0.117
CGCACTTA | 0.0925
TCGGTACA | 0.104
ACGTCAGG | -0.215
AAAAGCCA | -0.0583
CCCGCAGG | -0.00271
TAGTACAA | 0.151
CCCGTGAG | 0.0386
CATGGTAC | 0.197
GGATGGGA | 0.233
AGGTCCTA | -0.158
GCTTGGTA | 0.106
CAGATGCC | -0.0597
CCATTCAG | -0.0511
GACGGGGA | 0.0241
CGCGGGCC | 0.187
CGTGGAAC | 0.0558
ATTGTGGA | 0.121
ACGTGAAC | -0.129
GCTTTGAA | -0.252
TGATCCCA | 0.0559
ATGTAGTC | 0.286
CACTACAG | 0.0781

Sequence | PBM E-score
GGTAACCA | 0.0769
CGGAGTAC | 0.0632
CTGTGAGC | -0.0302
ATCTCGAA | -0.23
ATTTCTGG | -0.131
GGAGGATA | -0.05
ATAATAGC | -0.0587
CAACGCAC | 0.0171
CTAGTCTC | -0.0355
TACACGTA | 0.0745
AATGAGGT | -0.113
CCCTACAC | 0.154
CGTCATCA | 0.0722
ATTAATAA | 0.143
ATCTCCGG | 0.055
ATCCTATG | 0.0419
AACGAGCA | -0.0591
GCTCCAAA | -0.165
AATAGTCA | 0.344
AGCAGGCC | -0.0617
AACGTCTC | 0.0206
CTACGCTA | -0.192
ATTTAAGG | -0.155
TGAGGGAA | -0.0711
AATCATGG | 0.387

Sequence | PBM E-score
AACCCTAG | -0.0365
TGTCGCAA | -0.0761
GTCCGATA | -0.0706
CACGGACC | 0.0377
AAAACAGC | -0.0424
CCCCGGTA | -0.0301
CACCCCCC | -0.0808
AGTATCCG | 0.148
ATATCCGA | 0.211
ACGGAGTC | 0.408
ATTGTGGC | 0.0697
AAACGACC | -0.0187
AAACCTCA | 0.09
CGTCCAGC | -0.199
GCATGAGC | -0.004
ACACAGGA | 0.18
CCGTAGTC | 0.241
GAATGAGC | -0.0284
GAGCTGGC | 0.114
GAGGACGC | -0.123
AAGGATCG | 0.0507
CCCACAAG | -0.0259
CAAGGAGC | -0.059
CATGACTA | 0.458
AATTAATG | 0.0751

Sequence | PBM E-score
ACCTATCC | 0.00922
CACTTAGC | -0.0315
ACTTGTGG | 0.127
CCTGTTCA | -0.108
AAATTTTC | -0.42
CAAACTTC | 0.0398
AGGTACTA | 0.135
CCCTGGGC | -0.0164
CCGGGGCC | 0.0664
CCCCCCCC | -0.252
TCGAGACA | 0.0302
ATTCCTGA | 0.141
AAATGACA | -0.00611
CTGCTACA | 0.00558
CGCGGAGA | 0.183
CCGTGTCA | 0.0507
TCGACTAA | 0.207
GCAATAGA | -0.171
AACACGTT | -0.158
